About 65 (0.1%) of roughly 45,000 compounds were called active. Calls come from the whole dose curve; as a rule, active = well fitted activation curve with a large enough effect; inconclusive = small, poorly fitted or top-dose-only effect; inactive = no such curve, though single readings can be large or run the other way. The list shows a part of the results.
molecular target: Galactocerebrosidase (Homo sapiens) (UniProt P54803); test: A Novel Cell-Based Assay to Identify Small Molecules for B -Galactocerebrosidase; details: 145M-Twi-hGALC-G270D cells (Twitcher mouse brain line with human GALC G270D), HMU-beta-Gal fluorescence, 48 h; series mostly up to 57.5 µM; activation: at the top concentration; note: 0% is about no effect; nearly all actives have a fitted effect of over 65% in size
In short: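 Fluorogenic HMU-b-Gal hydrolysis (0.1 mM final, pH 5.2 citrate-phosphate with 1 mg/mL sodium taurocholate; carbonate stop buffer) measures mutant GALC activity after compound treatment of live 145M-Twi Twitcher brain cells stably carrying human GALC-G270D, with wild-type GALC line alongside; activation sought.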

Sequence of UniProt P54803 (P54803 whole entry, looked up): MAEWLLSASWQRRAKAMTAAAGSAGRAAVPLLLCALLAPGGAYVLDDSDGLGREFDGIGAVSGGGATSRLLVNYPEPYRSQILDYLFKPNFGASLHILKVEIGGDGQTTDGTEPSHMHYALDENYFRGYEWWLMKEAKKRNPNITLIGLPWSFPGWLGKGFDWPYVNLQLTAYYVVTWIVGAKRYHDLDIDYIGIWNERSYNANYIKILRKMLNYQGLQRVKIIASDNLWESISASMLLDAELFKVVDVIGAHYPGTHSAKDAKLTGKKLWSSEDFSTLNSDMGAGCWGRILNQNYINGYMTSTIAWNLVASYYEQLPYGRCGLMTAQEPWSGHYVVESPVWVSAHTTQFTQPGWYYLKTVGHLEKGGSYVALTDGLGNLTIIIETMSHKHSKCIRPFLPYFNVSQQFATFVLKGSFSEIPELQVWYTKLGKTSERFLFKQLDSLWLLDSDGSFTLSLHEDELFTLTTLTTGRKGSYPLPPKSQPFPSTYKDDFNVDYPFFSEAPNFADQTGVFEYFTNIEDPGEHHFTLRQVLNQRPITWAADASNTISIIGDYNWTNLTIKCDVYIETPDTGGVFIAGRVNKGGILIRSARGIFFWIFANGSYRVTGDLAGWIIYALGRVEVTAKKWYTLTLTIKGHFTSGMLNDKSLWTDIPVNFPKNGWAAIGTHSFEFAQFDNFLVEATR

activation, inactive:
Cc1cccc(NC(=O)CSc2nnc(C)c(=O)[nH]2)c1 2.52%, Cc1ccc(-n2ncc3c(NCCCc4ccccc4)ncnc32)cc1C -7.1%, CC(C)c1ccc(NC(=O)c2ccc(NC(=O)CCS(=O)(=O)c3cccs3)cc2)cc1 -10.6%, Cc1ccc(CCNc2nc3c(S(=O)(=O)c4ccc(C)cc4)nnn3c3ccsc23)cc1 -2.71%, CCS(=O)(=O)N1CC(=O)N(c2cccc(C)c2C)C(C)(C(=O)NC2CCCCC2)C1 (stereo unspecified) -10.8%, CCOC(=O)c1[nH]c(C)c(CCC(=O)Nc2ccc(N(CC)CC)cc2C)c1C -9.05%, Cc1ccc(-c2c3c(=O)n(C)c(=O)n(C)c3c3c(C(F)(F)F)nc4ccccc4n23)cc1 -21.6%, Cc1c(NC(=O)c2sc3c([N+](=O)[O-])cccc3c2Cl)cccc1-c1nc2ccccc2o1 -20.4%, COc1cc(CNC(=O)c2cc3n(n2)CCCN(Cc2ccc(C)cc2)C3=O)cc(OC)c1OC -30%, [O-][n+]1cccc(CO)c1 -10%, COc1cc(OC)cc(C(=O)Nc2c(C(=O)Nc3ccc(F)cc3)oc3ccccc23)c1 -8.07%, COc1cc(NC(=O)Cn2c(C)cc3ccccc3c2=O)cc(OC)c1OC -5.92%, CCOC(=O)c1cc(-c2ccccc2)n(CCCC(=O)Nc2cccc(Cl)c2C)c1C -1.66%, CSc1ccc(CCNC(=O)C(C)n2c(C)c3cnn(-c4ccccc4)c(=O)c3c2C)cc1 (stereo unspecified) -15.5%, Cc1nc(-c2ccc(F)cc2)sc1CCNC(=O)c1ccco1 0.4%, Cc1cc(C)cc(NC(=O)Cn2nnc(C(=O)Nc3cc(C)cc(C)c3)c2N)c1 -13.1%, CCc1ccc(CNC(=O)CCN2C(=O)COc3ccccc32)cc1 -22.1%, Cc1ccc(/C=C/c2onc(C)c2S(=O)(=O)N2CCC(C(=O)N3CCOc4ccccc43)CC2)cc1 -15.9%, O=C(Cn1c(=O)n(Cc2ccccc2)c(=O)c2oc3ccccc3c21)Nc1ccc(Cl)cc1 -7.77%, CC(=O)Nc1cc(C(=O)NCc2ccc(F)cc2Cl)ccc1Sc1ccc(Cl)cc1 -2.91%, COC(=O)c1cc2oc(C)cc2n1CC(=O)Nc1ccc(C)cc1C -5.34%, COc1ccccc1N(Cc1cc2cccc(C)c2[nH]c1=O)C(=O)c1cccc(Cl)c1 -11.7%, Oc1ccc(Cl)cc1Nc1nc2ccccc2n2cnnc12 -11.2%, CCOC(=O)c1ccc(NC(=O)Cc2ccc(-n3c(CC)nc4cccnc43)cc2)cc1 -7.92%, COc1ccc(CNC(=O)CCCc2cn(C)c3ccccc23)c(OC)c1 -3.36%, NC(=O)c1cc(S(=O)(=O)N2CCCCC2)cs1 -4.96%, COc1ccc(NC(=O)Cn2nnc(C(=O)NCc3ccccc3Cl)c2N)cc1Cl 4.75%, CCNC(=O)CC1C(=O)N(c2ccc(C)cc2)C(=O)N1Cc1ccc(C)cc1 (stereo unspecified) -9.09%, O=C(CCS(=O)(=O)c1ccc2c(c1)NC(=O)CO2)Nc1cccc(C(F)(F)F)c1 -4.39%, COc1ccc(CCn2c3c(c(=O)[nH]c2=O)C(NC(=O)c2ccccc2)(C(F)(F)F)C(=O)N3)cc1OC (stereo unspecified) -9.4%, CCOc1ccc(N(C(=O)c2ccc(C)cc2)S(=O)(=O)c2ccc3c(c2)n(C)c(=O)n3C)cc1 14%, Cc1ccc2nc(-c3ccc(C)c(NC(=O)CSc4ccc(Cl)cc4)c3)oc2c1 -6.33%, CCn1cc(S(=O)(=O)c2cc(C)cc(C)c2)c(=O)c2cc(F)c(N3CCC(C)CC3)cc21 -24.2%, CCN(CC)C(=O)Cn1c(=O)n(CCCCCC(=O)NCc2ccccc2Cl)c(=O)c2sccc21 2.19%, COc1ccc(OC)c(NC(=O)c2ccc3c(c2)c(C)c(C)n3Cc2ccc(F)cc2)c1 -12.7%, O=C(NCc1cccc(Br)c1)c1cccn1-c1nnc(N2CCCCC2)s1 1.23%, Cc1ccc2cccc(NC(=O)c3ccc(-c4cc(Cl)ccc4Cl)o3)c2n1 -9.96%, Cc1ccc(Cl)cc1N1CCN(C(=O)Cn2cnc3nc4c(cc3c2=O)CCCC4)CC1 -27.9%, O=C(NCc1ccc(Cl)cc1)c1cc2ccccc2o1 -5.21%, Cc1ccc(C)n1-c1nnc(N2CCCC(C(=O)NCc3ccc(F)cc3)C2)s1 (stereo unspecified) -4.89%, Cc1cccc(-c2nc(SCC(=O)Nc3ccc4c(c3)OCO4)c(-c3ccccc3)[nH]2)c1 -14.3%, CCc1ccc(OCC(=O)N(Cc2ccc(OC)cc2)C2CCS(=O)(=O)C2)cc1 (stereo unspecified) -7.98%, O=C(CCn1c(=O)c2cccn2c2cccnc21)N1CCN(c2cccc(Cl)c2)CC1 4.13%, CN1C(=O)Cc2cc(S(=O)(=O)NCCc3ccccc3)ccc21 -14.6%, COc1ccc(NC(=O)C2CCCN2S(=O)(=O)c2ccc3nc(-c4ccccc4)[nH]c3c2)cc1 (stereo unspecified) -10.2%, CCCCCN1C(C(=O)c2ccccc2)=C(NC(=O)c2ccccc2Cl)c2ccccc2S1(=O)=O -19%, COc1ccc(CCNC(=O)c2ccc3c(c2)N(Cc2ccc(Cl)cc2)CCS3)c(OC)c1 2.89%, CCN1CCN(C(=O)c2ccc3c(c2)N(Cc2cccc(F)c2)C(=O)c2ccccc2S3)CC1 -22%, COCCCNC(=O)Cn1cnc2sc(C)c(S(=O)(=O)N3CCN(c4ccccc4OC)CC3)c2c1=O -27.4%, CCOC(=O)c1cc(-c2ccc(C)cc2)n(CCC(=O)Nc2ccc(OC)c(OC)c2)c1C -11.7%, COc1ccc(-c2nc3n(n2)C(=O)CC(c2ccc(Cl)cc2)S3)cc1 (stereo unspecified) -9.72%, Cc1ccc(-c2ccc(=O)n(CC(=O)NCc3ccc(F)cc3)n2)cc1 -16.8%, CCC(C)NC(=O)C1CCC(CNS(=O)(=O)c2ccc(Cl)cc2)CC1 (stereo unspecified) -11.5%, CCOC(=O)C1CCN(S(=O)(=O)c2ccc3c(c2)NC(=O)C(C)C(=O)N3)CC1 (stereo unspecified) -17.6%, Cc1ccc2nc3c(cc(C(=O)NC4CCCCC4)c(=N)n3C(C)C)c(=O)n2c1 -19.7%, CCOC(=O)c1ccc(NC(=O)CC2NCCNC2=O)cc1 (stereo unspecified) -10.1%, CCn1c2ccccc2c2cc(NC(=O)COc3ccc(C)c(C)c3)ccc21 -2.76%, COC(=O)c1c(NC(=O)COc2cc(C)ccc2C(C)C)sc2c1CCC(C)C2 (stereo unspecified) -6%, Cc1cc(C)c(S(=O)(=O)n2cnc(C)c2)c(C)c1 -6.91%, CC(=O)c1ccc(N2CCN(S(=O)(=O)c3ccc(-c4cc(C)no4)s3)CC2)cc1 -1.43%, COC(=O)c1ccc(NC(=O)C2CCN(C(=O)c3ccc(F)cc3)CC2)cc1 -6.79%, CC1=C(C(=O)Nc2ccccc2C)C(c2cccnc2)n2nc(SCc3ccccc3F)nc2N1 (stereo unspecified) -11.2%, CCOc1cc(C(=O)Nc2ccc(-c3nc4ncccc4o3)cc2C)cc(OCC)c1OCC -7.96%, Cc1cccc(NC(=O)CCn2nc(-c3ccccc3)c3ccccc3c2=O)c1 -33.4%, CCS(=O)(=O)CCSc1nc(-c2ccc(Br)cc2)cc(-c2ccccc2)c1C#N -18%, N#Cc1cccc(NC(=O)C2CCN(c3ncccn3)CC2)c1 -1.82%, COc1ccccc1CNC(=O)CCCCn1c(=O)c2ccccc2n(CC(=O)Nc2cc(Cl)ccc2C)c1=O -14.6%, O=C(O)CCc1ccc(-c2ccccc2)n1CC(=O)Nc1ccccc1C(F)(F)F -15.8%, Cc1ccccc1Nc1nn2c(=O)c3ccc(C(=O)N4CCCC(C)C4)cc3nc2s1 (stereo unspecified) -14.5%, COc1ccc2c(c1)c1c(c(=O)n(-c3ccccc3C)c(=O)n1CC(=O)Nc1c(C)cccc1C)n2C -9.6%, O=c1c2[nH]c3ccccc3c2nc(SCc2cccc(F)c2)n1-c1ccccc1 -15.5%, CCOc1ccc(CNS(=O)(=O)c2cc(-c3cc(C)no3)ccc2C)cc1OC -8.1%, O=C1CC(c2ccc(Cl)cc2)Sc2nc(-c3ccc(F)cc3)nn21 (stereo unspecified) -25%, COc1ccc(-c2cnc(C)o2)cc1S(=O)(=O)Nc1ccc(C)c(N(C)C)c1 -19.1%, CC(C)(C)c1ccc(C(=O)CCCN2CCC(OC(c3ccccc3)c3ccccc3)CC2)cc1 -17.7%, COc1ccc(NC(=O)Cn2c(SCc3ccc(C)cc3)nc3cccnc32)c(OC)c1 0.514%, Cc1ccc(NC(=O)CCC(=O)N2Cc3ccccc3Oc3ncccc32)cc1 -6.82%, COc1cccc(OC)c1C(=O)Nc1ccc2c(c1)N(C(C)=O)CCC2 -6.7%, O=C(CCc1ccccc1)NC1CC(=O)N(c2ccccc2)C1 (stereo unspecified) -7.01%, CCCn1c(=O)c2sccc2n2c(CCCC(=O)Nc3cccc(CC)c3)nnc12 -6.85%, CCc1cnc2c(c1SCC(=O)Nc1ccc(C)cc1C)c(=O)n(C)c(=O)n2C -6.82%, COCCCNC(=O)CSc1nc(-c2ccccc2)[nH]c1-c1ccc(C)cc1 -17.3%, Cn1c(=O)[nH]c2cc(-c3noc(-c4ccc(F)cc4)n3)ccc21 -11.7%, CCn1c(=O)cc(SCC(=O)NCCc2ccc(OC)cc2OC)c2ccccc21 -35.1%, CCc1ccc(-n2c(=O)c3c4c(sc3n(CC(=O)NC(C)CC)c2=O)CCCC4)cc1 (stereo unspecified) -7.56%, CCc1nn2c(=O)cc(COC(=O)C(c3ccccc3)c3ccccc3)nc2s1 -12.3%, Cc1cccc(-c2nc(SCC(=O)Nc3ccc4c(c3)OCCO4)c(-c3ccccc3)[nH]2)c1 -15.6%, Cc1cc(C)cc(N(CC(=O)NCc2ccccc2Cl)S(=O)(=O)c2c(C)noc2C)c1 -14.9%, COc1ccc(-n2nc(C(=O)NCCc3cccc(C)c3)c3c4ccccc4n(C)c3c2=O)cc1Cl -16%, CCOC(=O)c1ccc(Nc2cc(-c3ccccc3)nc(C)n2)cc1 -5.08%, Cc1ccccc1C(=O)Nc1nnc(S(=O)(=O)N2CCCCCC2)s1 -15.1%, COC(=O)CC1Oc2ccccc2-n2cc(-c3ccc(Cl)cc3)nc21 (stereo unspecified) -7.37%, Cc1ccc(Cl)cc1N1CCN(C(=O)C2CCN(Cc3nc(-c4cccc(Cl)c4)oc3C)CC2)CC1 11.3%, COc1ccc(CNC(=O)Cc2csc3nc(-c4ccc(C)cc4)cn23)cc1 -10.2%, O=C(COc1ccccc1)Nc1ccccc1C(=O)OCc1cc(=O)n2nc(C3CC3)sc2n1 -9.87%, CCOC(=O)Cn1c(=O)n(-c2ccccc2OC)c2nc(-c3ccccc3C)nc(C(N)=O)c21 -32.6%
